These results are taken from ChEMBL document CHEMBL4888484, “Replenishing the malaria drug discovery pipeline: Screening and hit evaluation of the MMV Hit Generation Library 1 (HGL1) against asexual blood stage Plasmodium falciparum ,using a nano luciferase reporter read-out” (2022).

Out of some 150,000 compounds screened, about 540 (0.36%) showed an effect of 50% or more. The list shows a part of the results.

The assay relates to Plasmodium falciparum. Kind of assay: Primary screen in NF54 nanoGlo assay, in single point, at 2uM, 72h; a lower Z score goes with more inhibition. Type of assay: functional, Erythrocyte. Particulars: timepoint 72 hour.
For `CC(C)CN1CCN(C(=O)c2ccn(CC(F)F)n2)CC1=O`, the “% Inhibition” value is on record as -14% and the Z score is reported as 2.18.
The like results for `O=C(NCCc1ccccc1)c1n[nH]c2c1CN(C(=O)Cc1cccc(Cl)c1)CC2` were, in that order, -8% and 1.33.
Consider `CCc1ccc(CN(C)CCN(C2CCOCC2)[C@H]2CCCN(S(C)(=O)=O)C2)cc1`, for which the “% Inhibition” value is -1% and the Z score came to 0.13.
The like results for `COCCCNC(=O)C1CCN(C(=O)N2C[C@@H]3C[C@H](C2)[C@H]2CCCC(=O)N2C3)CC1` were, in that order, -2% and 0.32.
The like results for `CN(C)S(=O)(=O)c1ccc(C(=O)N2CCCC[C@H](c3ccc(F)cc3)C2)cc1` were, in that order, -5% and 0.75.
The like results for `CCN(Cc1ccc(Cl)s1)S(=O)(=O)Cc1ccc(F)cc1C` were, in that order, -12% and 1.89.
Consider `O=C(NCCc1cnc(C2CC2)nc1)NC1CCOC2(CCOC2)C1` (stereo unspecified), for which the “% Inhibition” value was -7% and the Z score is recorded as 0.88.
The like results for `Cc1ccc(CNC(=O)[C@@](C)(O)C2CCOCC2)s1` were, in that order, -5% and 0.74.
The like results for `CN1CCC(N(C)C2CCCCC2N(C)C(=O)Nc2ccc(F)cc2Cl)CC1` (stereo unspecified) were, in that order, 0% and 0.05.
The like results for `CCCc1ccc(OCCNC(=O)N2CCN3C(=O)CNC(=O)[C@@H]3C2)cc1` were, in that order, -17% and 2.43.
`O=C(C1CC1c1ccccc1)N1CCN(c2ccccc2)CC1` (stereo unspecified): the “% Inhibition” value is -11% and the Z score was found to be 1.23.
The like results for `O=C(Nc1ccc(-c2ccc3ccccc3n2)cc1)c1ccc(F)cc1` were, in that order, -7% and 1.04.
The like results for `COc1ccccc1NC(=O)Cn1cc(S(=O)(=O)c2ccc(Cl)cc2)c(=O)c2ccc(C)nc21` were, in that order, -25% and 2.54.
The like results for `Cn1cccc1CN[C@H]1CCOc2ccc(F)cc21` were, in that order, -10% and 1.36.
For `Cc1cc(CNC(=O)[C@]2(c3ccc(F)cc3)CC2(C)C)ccn1`, the “% Inhibition” value is reported as -7% and the Z score came out at 1.44.
The like results for `CN(C[C@H]1CCOC1)c1ccccc1S(C)(=O)=O` were, in that order, -16% and 1.66.
The like results for `Cc1ccc(NC(=O)CC(=O)N[C@@H](C)c2nc3cc(C)ccc3[nH]2)c(C)c1` were, in that order, -3% and 0.54.
The like results for `Cc1cc(F)ccc1S(=O)(=O)N1CC(Cn2ccnn2)C1` were, in that order, -4% and 0.65.
Regarding `FC(F)(F)Cn1ccnc1CN1CCOC2(CCCC2)C1`, the “% Inhibition” value is recorded as 1% and the Z score was -0.26.
The like results for `Cc1ccnc(N2CCC[C@H]2c2ccc3c(c2)OCCO3)n1` were, in that order, -3% and 0.65.
The like results for `CCc1cc(CC)c(NC(=O)N(C)Cc2cnc(N)nc2)c(CC)c1` were, in that order, -20% and 2.12.
The like results for `CCC[C@H](NC(=O)c1cc2c(s1)CCC2)c1nnn[nH]1` were, in that order, -3% and 0.41.
For the compound `Cc1ccc(Cl)c(S(=O)(=O)N[C@H]2CNC[C@@H]2c2ccccc2)c1`, the “% Inhibition” value was determined as 2% and the Z score is reported as -0.38.
As to `Cc1cc([C@H]2C[C@H]3CC[C@@H](C2)N3C(=O)[C@@H]2CCC[C@H](N)C2)ccc1F`, the “% Inhibition” value is on record as -8% and the Z score was determined as 0.95.
Take `CC1(C)CCC[C@@H]1N(Cc1ccccc1)C(=O)Nc1ccc(C(N)=O)cc1F`: the “% Inhibition” value was -4% and the Z score was 0.57.
The like results for `O=C(NCCc1ccco1)OCC(F)(F)F` were, in that order, -5% and 0.59.
The like results for `Cn1cc(-c2cccc3c2OC(F)(F)O3)c(C(=O)O)n1` were, in that order, -13% and 2.01.
The like results for `COC(=O)CCC(=O)Nc1cc(Cl)cc(Cl)c1` were, in that order, 0% and -0.01.
Turning to `CCCS(=O)(=O)N1CC(S(=O)(=O)c2ccc(Cl)cc2)C1`, the “% Inhibition” value is recorded as -21% and the Z score is recorded as 2.72.
The like results for `CN1CCC(N(C)Cc2ccc(OCc3ccccc3)cc2)CC1` were, in that order, 25% and -3.8.
The like results for `Cc1cc(C(=O)N[C@H]2CCOC3(CC(C(=O)O)C3)C2)cc(C)c1F` (stereo partly specified) were, in that order, -8% and 1.5.
The like results for `CN(C)[C@@H](CNCc1c[nH]nc1-c1cccnc1)c1cccs1` were, in that order, -12% and 1.2.
As for `Cc1[nH]ncc1C(=O)N[C@@H](CO)c1ccc(Cl)cc1C(F)(F)F`, the “% Inhibition” value is reported as -9% and the Z score turned out to be 0.81.
For `Cc1ccccc1N1CCN(C(=O)c2ccc3ncccc3c2)CC1`, the “% Inhibition” value is 37% and the Z score is -1.04.
The like results for `c1ccc(-c2nc(CNc3nnc([C@@H]4CCCO4)o3)cs2)nc1` were, in that order, -13% and 1.29.
The like results for `O=C(Nc1ccccc1)Nc1ccc(=O)n2c1[C@@H]1C[C@@H](CN(C(=O)Nc3ccc(F)cc3)C1)C2` were, in that order, 0% and -0.03.
In the case of `O=C(NC1CCCCC1)N1CC(n2cc(CO)nn2)C1`, the “% Inhibition” value is reported as -4% and the Z score stood at 0.83.
The like results for `COCc1ccccc1C(=O)N1CCCC[C@H](N2CCCC2)C1` were, in that order, -11% and 0.98.
The like results for `Cc1cnc(CN[C@@H](C)c2ccc(C)c(F)c2)o1` were, in that order, -12% and 2.28.
The like results for `COc1ccc(CN(C)C(=O)[C@H]2NCC23CCOCC3)cc1C` were, in that order, -4% and 0.66.
Turning to `CC(=O)N[C@H]1CN(Cc2cccnc2)C[C@@H]1c1ccc(C)cc1`, the “% Inhibition” value is listed as -4% and the Z score was 0.68.
The like results for `COc1ccccc1-c1ncc(CN(C)C[C@H]2CC(=O)N(C3CCCC3)C2)s1` were, in that order, -7% and 1.44.
The like results for `COc1cc([C@H]2CC(=O)Nc3c2c(=O)[nH]n3C2CCOCC2)cc(OC)c1O` were, in that order, -7% and 0.87.
Take `O=C(NC1CCCCC1CO)NC1CCOC1C1CC1` (stereo unspecified): the “% Inhibition” value was 12% and the Z score was -1.82.
With `Cc1cc(=O)[nH]c(CCNC(=O)N2CCC[C@H]2c2nc3c(C)cccc3[nH]2)n1`, the “% Inhibition” value amounted to 3% and the Z score is listed as -0.54.
For `CNc1nc(C)cc(C(=O)Nc2ccnn2C[C@H]2CCOC2)n1`, the “% Inhibition” value was 35% and the Z score is listed as -5.12.
For the compound `COc1cc(C)sc1C(=O)NCc1cc2n(n1)CCNC2`, the “% Inhibition” value is -12% and the Z score worked out at 1.39.
The like results for `COc1ccc(-n2cc(-c3cccc(OC)c3)nc2NC(=O)CN(CC(C)C)C(=O)CC(C)C)cc1` were, in that order, 6% and -0.54.
The like results for `O=C1Cc2ccc(CC(=O)N3CC(=O)N(C4CC4)C3)cc2N1` were, in that order, -5% and 0.84.
The like results for `O=C(Cc1cc(-c2ccccc2)on1)NCCNC(=O)C1CCCC1` were, in that order, -4% and 0.44.
Consider `CC[C@@H](C(=O)NCc1ccc(Cl)cc1)N(C)CC`, for which the “% Inhibition” value is -2% and the Z score turned out to be 0.35.
With `O=C(NCCn1nc(C2CC2)cc1C1CC1)c1ccncc1`, the “% Inhibition” value is recorded as -4% and the Z score is listed as 0.88.
The like results for `O=C(Nc1ccc(C(F)(F)F)cc1)c1ccccc1NCc1ccccc1` were, in that order, -9% and 1.1.
The like results for `CN(CC1CCCCO1)c1nnc(Cc2c[nH]c3ccccc23)n1CC1CCOC1` (stereo unspecified) were, in that order, -3% and 0.6.
Regarding `N#Cc1c(-c2ccccc2)cc(-c2ccc(F)cc2)nc1N1CCCCC1`, the “% Inhibition” value was 7% and the Z score is recorded as -0.89.
On to `CC(C)c1nnc2n1CCN(c1cncc(-n3cccn3)n1)C2`, for which the “% Inhibition” value is 9% and the Z score is recorded as -1.16.
The like results for `COc1cccc(-c2cc3n(C)c(C)c(CCC(=O)Nc4ccc(C)cc4)c(=O)n3n2)c1` were, in that order, -13% and 1.57.
The like results for `CN(C)[C@H](c1ccc2c(c1)OCO2)c1nc(C2CC2)nn1-c1ccccc1` were, in that order, -4% and 0.57.
The like results for `Nc1ncnc(N2CCC[C@]3(CNC(=O)C3)C2)c1Cl` were, in that order, -4% and 0.68.
Consider `CC(C)C(=O)NCCNC(=O)N(Cc1cccc(Cl)c1)C(C)C`, for which the “% Inhibition” value was -10% and the Z score was found to be 1.29.
The like results for `COc1cc(CN2[C@@H]3CC[C@H]2CN(C)C(=O)C3)ccc1N1CCCC1` were, in that order, 14% and -2.15.
With `COCc1nc(CC(C)C)nc(N2CCN(C(=O)c3ccco3)CC2)c1Cc1cccc(Cl)c1`, the “% Inhibition” value is listed as -10% and the Z score came out at 1.21.
As for `O=C(N[C@H]1CCOC[C@H]1C1CCOCC1)c1cncc(F)c1`, the “% Inhibition” value is listed as -2% and the Z score was determined as 0.41.
The like results for `Cc1nc(-c2cccnc2)nc2c1CC(=O)N2C(C)C` were, in that order, -13% and 1.77.
The like results for `CCOc1ccccc1N(C)C(=O)CCOC` were, in that order, -4% and 0.36.
The like results for `COc1ccc(-c2cc(N3CC[C@H](NC(=O)c4ccc(C)cc4)C3)[nH]n2)cc1` were, in that order, -10% and 1.05.
For the compound `NCc1ncc(-c2ccc(O[C@H]3CCOC3)cc2)cn1`, the “% Inhibition” value is on record as -6% and the Z score came to 0.59.
The like results for `Cc1nc(C)c([C@H](C)NC(=O)CCC(=O)c2ccc(Cl)cc2)s1` were, in that order, 2% and -0.23.
Take `COc1ccc([C@@H]2CCCN2C(=O)CNC(C)(C)c2nccs2)cc1OC`: the “% Inhibition” value worked out at 0% and the Z score is reported as 0.01.
In the case of `CCC(=O)N1CCN(C(=O)c2cc3n(n2)CCCC3)CC1`, the “% Inhibition” value is given as -6% and the Z score came out at 0.88.
The like results for `O=C(c1cc(-n2cccn2)ccc1Cl)N1CCO[C@]2(CNCCOC2)C1` were, in that order, -12% and 1.51.
The like results for `O=C(O)CCNC(=O)CCCc1ccc(F)c(F)c1` were, in that order, 0% and -0.09.
`COCCN1CC2(CCC1=O)CCN(Cc1nnc(C(C)C)o1)CC2`: the “% Inhibition” value is reported as -5% and the Z score was determined as 0.72.
The like results for `Cn1nc(CNC(=O)c2ccc(S(=O)(=O)N3CCOCC3)cc2)cc1C1CC1` were, in that order, -8% and 1.44.
The like results for `CC1CC(NC(=O)Cc2c(Cl)cccc2Cl)C(=O)O1` (stereo unspecified) were, in that order, -5% and 1.02.
The like results for `CCOc1cc(C2NC(=O)c3c(n[nH]c3C)N2)ccc1OC(C)C(=O)N(C)C` (stereo unspecified) were, in that order, 0% and 0.1.
In the case of `CCc1nc(N2CCN(S(=O)(=O)c3ccccc3)CC2)c2c(C)nn(-c3ccccc3C)c2n1`, the “% Inhibition” value is -16% and the Z score is on record as 1.55.
The like results for `Cc1ccc(S(=O)(=O)Cc2cn3ccc(C)cc3n2)cc1` were, in that order, -37% and 4.31.
The like results for `COc1ccc(-n2cc(-c3cccc(OC)c3)nc2NC(=O)CN(CC2CC2)S(=O)(=O)c2ccc(Cl)cc2)cc1` were, in that order, -18% and 2.56.
The like results for `Cc1cc(-c2cc(S(=O)(=O)N[C@@H](C)c3nncn3C)c(C)s2)on1` were, in that order, -1% and 0.14.
Regarding `N#Cc1ccccc1NC(=O)c1ccc(-n2cccn2)nn1`, the “% Inhibition” value is -3% and the Z score came out at 0.63.
For `Cc1csc(NC(=O)CCc2cnn(C)c2)n1`, the “% Inhibition” value is recorded as 3% and the Z score is on record as -0.37.
On to `O=C(O)c1ccc(OCCN2CCOc3cc(F)ccc3C2)c(Cl)c1`, for which the “% Inhibition” value was -13% and the Z score stood at 2.08.
